In all, about 410,000 compounds went through this assay and about 7,200 (1.8%) were called active. The shares of active, inactive and inconclusive entries below differ from those in the screen. Calls follow the shape of the dose curve; as a rule, active = well fitted activation curve with a large enough effect; inconclusive = small, poorly fitted or top-dose-only effect, or another doubt; inactive = no such curve, though single readings can be large or run the other way. Potencies beside an inconclusive call are fits to weak or partial responses and may not hold up.
Test: qHTS of TDP-43 Inhibitors; also: nearly all actives have a fitted effect of over 50% in size; as to growth rescue (activation): % of control where 0% means no effect
Details: TDP-43 expressing yeast growth rescue, BacTiter-Glo, 24 h; growth rescue (activation): at 46.1 µM (top of the series) unless noted
Method in brief: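 Cell-based yeast growth screen: TDP-43 expression induced in galactose, inoculum OD600=0.02 after raffinose pregrowth to mid-log. Read-out BacTiter-Glo luminescence at 24 hr, 30 deg C; inhibition of toxicity seen as signal increase.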
Potency is read from the fitted curve at half-maximal effect; tags tell the direction and shape of the fitted curve.

Potency, inconclusive:
CCCCOc1ccc(C(=O)NCCc2sc(-c3ccc(OC)c(OC)c3)nc2C)cc1 15.8 µM [activator, single point]
O=C(Cn1ncc2c3ccccc3n(Cc3ccc(F)cc3)c2c1=O)N1CCN(c2ncccn2)CC1 35.5 µM [activator, single point]
COc1ccc(-c2noc(=O)n2CC(=O)N2CCC(Cc3ccccc3)CC2)cc1 35.5 µM [activator, single point]
Cn1ccc2c(-c3ccc(C(N)=O)cc3)cc3c(c21)C1CCC3C1 (stereo not drawn) 25.1 µM [activator, partial curve, poor fit]
COc1ccc([N+](=O)[O-])cc1C1NN=C(c2cccc3ccccc23)S1 (stereo not drawn) 11.2 µM [activator, partial curve]
COc1ccc(NC(C)C(=O)Nc2cc(C(F)(F)F)ccc2N2CCOCC2)c(OC)c1 (stereo not drawn) 14.1 µM [activator, single point]
Cc1cccc(N2C(=O)CC(N3CCN(c4ccc(Cl)cc4)CC3)C2=O)c1 (stereo not drawn) 15.8 µM [activator, single point]
Clc1ccc(OCCCc2nc(-c3cccnc3)no2)c(Cl)c1 12.6 µM [activator, single point]
Cn1c(=O)c2cc(NC(=S)NCc3ccccc3F)ccc2n1C 39.8 µM [activator, partial curve, poor fit]
COc1ccc(C(=O)NCCSCc2ccccc2Cl)cc1OC 14.1 µM [activator, single point]
CCOC(=O)c1c(-c2ccco2)csc1N 6.31 µM [activator, full curve]
Cc1ccc(C(=O)N(Cc2ccco2)Cc2ccco2)cc1 35.5 µM [activator, partial curve]
O=C(NN=Cc1ccc2c(c1)OCO2)c1ccncc1 3.55 µM [activator, single point]
COc1ccc(-c2ccccc2)cc1NCc1ccc(OC)c(OC)c1 10 µM [activator, partial curve]
COc1cccc(/C=C2\Oc3cc(OCC(=O)N4CCCCC4)ccc3C2=O)c1OC 17.8 µM [activator, single point]
O=C(CCSc1ccccc1)Nc1ccccc1Br 11.2 µM [activator, partial curve]
O=C1ON=C(c2ccccc2)/C1=C/c1ccc(O)c(O)c1 17.8 µM [activator, single point]
CCCCCc1ccc(OCCCC[n+]2ccccc2)c(CCCCC)c1 14.1 µM [activator, single point]
CCC1CC(=O)CCN1S(=O)(=O)c1ccc(C)cc1 (stereo not drawn) 7.08 µM [activator, full curve, poor fit]
Cc1ccc(Cl)cc1NC(=O)C1CCCN(S(=O)(=O)c2cccc3cccnc23)C1 (stereo not drawn) 5.62 µM [activator, single point]
CC(C)CNC(=O)c1ccccc1NC(=O)c1ccc(CSc2ccccc2)cc1 6.31 µM [activator, single point]
COc1cccc(/C=N/n2cnc3ccccc32)c1OC 2.24 µM [activator, full curve]
COc1nc(C)cc(C)c1S(=O)(=O)c1ccccc1C 14.1 µM [activator, partial curve]
Cc1cc(=O)n(C)c(=O)n1CCCCOc1ccc([N+](=O)[O-])cc1 11.2 µM [activator, partial curve]
NC(=S)N/N=C/c1coc2ccc(F)cc2c1=O 14.1 µM [activator, partial curve]
Cc1ccc(C(=O)COC(=O)c2ccc(Br)o2)cc1C 20 µM [activator, single point]
Cc1ccc2scc(N3CCC(C)CC3)c(=O)c2c1 4.47 µM [activator, partial curve]
COC(=O)c1ccc(CNc2ccc(C(C)=O)cc2)cc1 28.2 µM [activator, partial curve]
CCc1ccccc1NC(=O)CN(C)C(=O)COC(=O)c1ccccc1Cl 35.5 µM [activator, partial curve]
O=[N+]([O-])c1ccc2c(c1)ncn2-c1ccccc1 28.2 µM [activator, partial curve]
CC1CCCN(S(=O)(=O)c2ccc(CN3C(=O)c4cccnc4C3=O)cc2)C1 (stereo not drawn) 3.16 µM [activator, full curve]
CCN1CCN(c2ccc(NC(=O)c3ccc4c(c3)OCO4)cc2)CC1 8.91 µM [activator, partial curve]
OCCCNc1ncnc2scc(-c3ccc(Cl)cc3)c12 15.8 µM [activator, single point]
O=c1c(-c2cc3ccccc3[nH]2)nc2ccccc2n1C(CCc1ccccc1)c1nc2ccccc2[nH]1 (stereo not drawn) 35.5 µM [activator, single point]
CCOc1ccc(C(=O)N2CCN(c3cccc(C)c3C)CC2)cc1 35.5 µM [activator, single point]
Cc1ccc(CN2[C@@H](Cc3ccccc3)C(=O)CS2(=O)=O)cc1 22.4 µM [activator, single point]
Oc1[nH]c2c(Cl)cc(Cl)cc2c1N=NC(=S)NCC1CCCO1 (stereo not drawn) 12.6 µM [activator, single point]
COc1ccccc1-c1cc(NC=O)c2ncc(-c3ccc(F)cc3)n2c1 8.91 µM [activator, partial curve, poor fit]
CN(C)C1=NC[C@H](Cc2ccccc2)N1CCCC1CCCCC1 5.62 µM [activator, partial curve, poor fit]
Cc1cc(C(=O)c2ccc(Cl)cc2)c(NC(=O)CCl)s1 1.26 µM [activator, full curve, poor fit]
Cc1onc(-c2ccccc2)c1C(=O)Nc1cccc(S(=O)(=O)N2CCCCC2)c1 3.16 µM [activator, partial curve]
COc1c(Cl)cc(C(=O)N(Cc2ccccc2F)C2CCS(=O)(=O)C2)cc1Cl (stereo not drawn) 35.5 µM [activator, partial curve, poor fit]
CC(C)(C)OC(=O)N1CCc2onc(-c3ccc([N+](=O)[O-])cc3)c2C1=O 1 µM [activator, full curve, poor fit]
CC(C)n1c(CCC(=O)O)ccc1-c1ccccc1 25.1 µM [activator, single point]
Cc1ccc(S(=O)(=O)N2C[C@H]3C(=O)C[C@@H](c4cccc5ccccc45)N(S(=O)(=O)c4ccc(C)cc4)[C@H]3C[C@H]2c2ccc(Cl)cc2)cc1 12.6 µM [activator, partial curve]

Potency, active:
Cc1oc(-c2ccccc2F)nc1CSCC(=O)N1CCN(c2ccccc2)CC1 31.6 µM
COCCn1c(SCc2cccc([N+](=O)[O-])c2)nc2ccccc2c1=O 17.8 µM
COc1cc2c(cc1OC)CN(C(=O)c1ccc(Br)o1)CC2 15.8 µM
Cc1ccc(C(C)C)c(OCC(=O)Nn2c(C)nc3ccccc3c2=O)c1 14.1 µM
CC(Oc1ccccc1)C(=O)Nc1ccc(OCc2cc(=O)n3ccsc3n2)cc1 (stereo not drawn) 15.8 µM
Cc1cccc2sc(NC(=O)C3CC3)nc12 11.2 µM
S=c1nn[nH]n1C12CC3CC(CC(C3)C1)C2 7.94 µM
Cc1[nH]c2ccccc2c1C(c1ccccc1)c1ccc(Cl)s1 (stereo not drawn) 35.5 µM

Growth rescue (activation), inactive:
CC(=O)Nc1ccc(CN2C(=O)C(Cc3ccccc3)ON=C2c2ncccc2C)cc1 (stereo not drawn) 19.6%
COc1ccc(S(=O)(=O)c2c(Nc3c(C)cccc3C)sc(C(=O)c3ccc4c(c3)OCO4)c2N)cc1 13.7%
CCn1c(SCC(=O)Nc2nc(-c3ccc(C)cc3)cs2)nnc1-c1ccccc1 -2.9%
CCOc1ccc(CCN2C(=O)C(=O)N([C@@H](Cc3ccc(O)cc3)CN3CCC[C@H]3CN3C(=O)C(=O)NC[C@@H]3Cc3ccccc3)C[C@@H]2Cc2ccc(O)cc2)cc1 8.49%
COc1ccc(N2C(=O)CS(=O)(=O)C23C(=O)N(Cc2ccc(F)cc2)c2ccc(C)cc23)cc1 (stereo not drawn) 10.7%
NS(=O)(=O)c1ccc(CCNC(=O)c2ccc3nc(CCc4ccccc4)oc3c2)cc1 -15.1%
CC(=O)N1CCN(C(=O)c2cc3ccccc3o2)CC1 -9.47%
O=C(CN1CCCCC1)N1CCCc2c1c(=O)oc1ccc(OCc3ccccc3)cc21 -27.6%
CC(C)c1nc2ccc(C(=O)NCCCN3CCN(c4cccc(Cl)c4)CC3)cc2o1 15.9%
Cn1c(=O)c2[nH]c(=O)cnc2n(C)c1=S 15%
Cc1coc2c(C)c3oc(=O)cc(-c4ccccc4)c3cc12 -13.9%
CCN(CC(=O)N1CCOCC1)S(=O)(=O)c1cc(Cl)ccc1Cl -8.37%
COc1cc(CC(=O)Nc2cccc(SC)c2)cc(OC)c1OC -0.952%
Cn1cc(C(=O)N/N=C/C(Br)=C/c2ccccc2)ccc1=O 15.2%

Growth rescue (activation), inconclusive:
Cc1ccc(OCc2nnc(SCc3nc4ccccc4[nH]3)n2Cc2ccco2)cc1 7.41% [activator]

From PubChem BioAssay AID652104 (National Center for Advancing Translational Sciences (NCATS), 2013)
